Test results from PubChem BioAssay AID1745853 (National Center for Advancing Translational Sciences (NCATS), 2022).
Some of the results follow. Shown are side measurements of this screen, not its main read-out; they come without a call.

Legend:
Assay in all cases: Primary Screen for Target Class Profiling of Small Molecule Inhibitors of Methyltransferases
[1] = molecular target: Glycine N-methyltransferase (Homo sapiens) (UniProt Q14749); conditions: purified enzyme, MTase-Glo SAH luminescence; measured here: GNMT inhibition; at 40 µM; stronger effect = lower value
How it was run: (§1)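 Each enzyme was assayed with SAM and its substrate. SAH formation detected by MTase-Glo luminescence; single-point 40 uM screen[…].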

[2] = molecular target: Guanidinoacetate N-methyltransferase (Homo sapiens) (UniProt Q14353); conditions: purified enzyme, MTase-Glo SAH luminescence; measured here: GAMT inhibition; at 40 µM; stronger effect = lower value
How it was run: as §1

[3] = molecular target: Histamine N-methyltransferase (Homo sapiens) (UniProt P50135); conditions: purified enzyme, MTase-Glo SAH luminescence; measured here: HNMT inhibition; at 40 µM; stronger effect = lower value
How it was run: as §1

[4] = molecular target: Nicotinamide N-methyltransferase (Homo sapiens) (UniProt P40261); conditions: purified enzyme, MTase-Glo SAH luminescence; measured here: NNMT inhibition; at 40 µM; stronger effect = lower value
How it was run: as §1

[5] = molecular target: Phenylethanolamine N-methyltransferase (Homo sapiens) (UniProt P11086); conditions: purified enzyme, MTase-Glo SAH luminescence; measured here: PNMT inhibition; at 40 µM; stronger effect = lower value
How it was run: as §1
% is scaled to controls: 0 for no effect and ±100 for the full control effect.

## CCOc1ccc(CCN2C(=O)c3ccc(-c4ccco4)n3CC2(C)C(=O)NC2CCCC2)cc1 (stereo not given)
[1]
  activity change, negative = inhibition: -0.19%
[2]
  activity change, negative = inhibition: 3.92%
[3]
  activity change, negative = inhibition: 4.18%
[4]
  activity change, negative = inhibition: -1.83%
[5]
  activity change, negative = inhibition: -1.71%

## COc1ccc2nc(S(=O)(=O)Cc3ncc(C)c(OC)c3C)[nH]c2c1
[1]
  activity change, negative = inhibition: -2.04%
[2]
  activity change, negative = inhibition: -7.72%
[3]
  activity change, negative = inhibition: 0.439%
[4]
  activity change, negative = inhibition: -20.7%
[5]
  activity change, negative = inhibition: -2.08%

## CCCSCCCN1C(=O)c2cc3oc(C)cc3n2CC1(C)C(=O)NC1CCCCCCC1 (stereo not given)
[1]
  activity change, negative = inhibition: -1.27%
[2]
  activity change, negative = inhibition: 0%
[3]
  activity change, negative = inhibition: 8.66%
[4]
  activity change, negative = inhibition: -1.79%
[5]
  activity change, negative = inhibition: -4.21%

## O=C(Nc1ccc2c(c1)OCCO2)N1CCCC(CN2CCOCC2)CC1 (stereo not given)
[1]
  activity change, negative = inhibition: -3.1%
[2]
  activity change, negative = inhibition: 2.54%
[3]
  activity change, negative = inhibition: -1.28%
[4]
  activity change, negative = inhibition: 0.751%
[5]
  activity change, negative = inhibition: -7.15%

## CC1(C)CC[C@]23CO[C@@]4(CCC5[C@@]6(C)CC[C@H](O[C@@H]7OC[C@H](O[C@@H]8O[C@H](CO)[C@@H](O)[C@H](O)[C@H]8O)[C@H](O)[C@H]7O[C@@H]7O[C@H](CO)[C@@H](O[C@@H]8O[C@H](CO)[C@@H](O)[C@H](O)[C@H]8O)[C@H](O)[C@H]7O)[C@@](C)(CO)C6CC[C@@]5(C)[C@]4(C)C[C@H]2OC2OCC(O)C(O)C2O)C3C1 (stereo not given in full)
[1]
  activity change, negative = inhibition: 4.06%
[2]
  activity change, negative = inhibition: 7.63%
[3]
  activity change, negative = inhibition: 8.82%
[4]
  activity change, negative = inhibition: -0.769%
[5]
  activity change, negative = inhibition: 3.28%

## COC(=O)c1cc2n(n1)CC(C)(C(=O)NC1CCCCC1)N(c1ccc(Cl)cc1C)C2=O (stereo not given)
[1]
  activity change, negative = inhibition: -2.96%
[2]
  activity change, negative = inhibition: 1.16%
[3]
  activity change, negative = inhibition: -0.251%
[4]
  activity change, negative = inhibition: -5.73%
[5]
  activity change, negative = inhibition: -1.38%

## CCCN1C(=O)c2c(C(=O)NCc3cccc(Br)c3)ncn2CC1(C)C(=O)NCc1ccccc1 (stereo not given)
[1]
  activity change, negative = inhibition: -2.23%
[2]
  activity change, negative = inhibition: 0%
[3]
  activity change, negative = inhibition: 10.6%
[4]
  activity change, negative = inhibition: 10.1%
[5]
  activity change, negative = inhibition: 5.92%

## COc1ccc(CCc2nc3cc(-c4c(C)noc4C)ccc3n2CC(C)N2CCOCC2)cc1Cl (stereo not given)
[1]
  activity change, negative = inhibition: -4.85%
[2]
  activity change, negative = inhibition: -4.58%
[3]
  activity change, negative = inhibition: 4.47%
[4]
  activity change, negative = inhibition: -45.8%
[5]
  activity change, negative = inhibition: -1.77%

## O=C(O)CCC(=O)N1Cc2ccccc2CC2(CCCN(CC3CCOCC3)C2)C1 (stereo not given)
[1]
  activity change, negative = inhibition: -4.41%
[2]
  activity change, negative = inhibition: -12.2%
[3]
  activity change, negative = inhibition: -2.21%
[4]
  activity change, negative = inhibition: -7.21%
[5]
  activity change, negative = inhibition: -6.16%
